{
  "source": "PubChem BioAssay AID624296",
  "about": "(National Center for Advancing Translational Sciences (NCATS), 2012)",
  "note": "The campaign covered roughly 350,000 compounds. About 9,900 (2.8%) were called active. This list was built around the results that the source calls inconclusive (neither active nor inactive); the mix of calls is not that of the screen. The call rests on the fitted dose curve; in most records, active means well fitted activation curve with a large enough effect; inconclusive means small, poorly fitted or top-dose-only effect; inactive means no such curve, though single readings can be large or run the other way. Potencies of inconclusive entries are left out as doubtful fits. Potency means the concentration at half of the fitted maximal effect; tags describe the fitted curve by direction and shape.",
  "data": [
    {"test": "A quantitative high throughput screen for small molecules that induce DNA re-replication in MCF 10a normal breast cells; further: nearly all actives have a fitted effect of over 50% in size.", "details": "MCF 10A DNA re-replication, Hoechst nuclear intensity, 48 h; series mostly up to 46.1 µM", "values": [
      {"smiles": "COc1ccc(NS(=O)(=O)c2ccc(N3CCOCC3)c(NC(=O)C(C)C)c2)cc1", "Potency": "inactive"},
      {"smiles": "CC1CC(C)CN(CC(C)(C)NS(=O)(=O)c2ccccc2)C1", "note": "(centres undefined)", "Potency": "inconclusive [activator, partial curve, poor fit]"},
      {"smiles": "Cc1cc2oc(=O)cc(CNc3ccccc3F)c2cc1O", "Potency": "inconclusive [activator, partial curve, poor fit]"},
      {"smiles": "O=C(C[n+]1ccccc1)N/N=C/c1cc(Br)cc(Br)c1O", "Potency": "inconclusive [activator, single point]"},
      {"smiles": "CCCCCCCNC(=O)C1(CC2CC(c3cccc(Br)c3)=NO2)CCN(C(=O)c2cc(OCC)c(OCC)c(OCC)c2)CC1", "note": "(centres undefined)", "Potency": "inconclusive [activator, single point]"},
      {"smiles": "CCN(CC(=O)NCc1ccc(Cl)cc1)C(=O)CSc1cc(C)ccc1C", "Potency": "inconclusive [activator, full curve, poor fit]"},
      {"smiles": "O=C(Nc1ccc2c(c1)OCCO2)C1CC(c2ccccc2Cl)=NO1", "note": "(centres undefined)", "Potency": "inactive"},
      {"smiles": "Cc1cc(Cl)cc(Br)c1OCCCCn1cncn1", "Potency": "inactive"},
      {"smiles": "COCCn1c(SCC(=O)Nc2ccccc2OC)nc2c(oc3ccccc32)c1=O", "Potency": "inactive"},
      {"smiles": "Cc1ccc2c(c1)[C@H]1[C@H](CO2)[C@H](c2ccccc2)[C@]2(C)C(=O)Nc3cc(F)ccc3C(=O)N12", "Potency": "active: 5.8 µM"},
      {"smiles": "CN(C)c1ccc(/C=C(\\Cl)c2nc3ccccc3s2)cc1", "Potency": "active: 7.31 µM"},
      {"smiles": "COc1ccc(NC(=O)CSc2nnc(C)c3ccccc23)cc1", "Potency": "inactive"},
      {"smiles": "CN(C)c1cccc(C(=O)OCc2cc(=O)oc3cc(O)ccc23)c1", "Potency": "inconclusive [activator, single point]"},
      {"smiles": "Cc1ccc2c(Cl)c(C(=O)Nc3cccnc3)sc2c1", "Potency": "inconclusive [activator, partial curve, poor fit]"},
      {"smiles": "CCN(CC)c1nc(Nc2ccc(Cl)cc2)nc(OCC#N)n1", "Potency": "inconclusive [activator, single point]"},
      {"smiles": "CCCCOc1ccc(-c2c(C#N)c(N)nc(SCC(N)=O)c2C#N)cc1", "Potency": "inconclusive [activator, single point]"},
      {"smiles": "O=C(NCCCN1CCN(c2cccc(Cl)c2)CC1)C1(S(=O)(=O)c2ccc(Cl)cc2)CC1", "Potency": "inconclusive [activator, partial curve, poor fit]"},
      {"smiles": "COc1ccccc1NC(=O)CSc1nnc(COc2ccc(Cl)cc2)n1Cc1ccco1", "Potency": "inconclusive [activator, partial curve, poor fit]"},
      {"smiles": "CCN(C(=O)c1cccs1)c1nc(-c2ccc(OC)cc2)cs1", "Potency": "inconclusive [activator, partial curve]"},
      {"smiles": "Cc1nn(-c2ccc(F)cc2)c(Cl)c1/C=N/NC(=O)c1ccc(O)cc1", "Potency": "inconclusive [activator, single point]"},
      {"smiles": "O=C(Cn1cc(C(=O)C2CC2)c2ccccc21)NCC1CCCO1", "note": "(centres undefined)", "Potency": "inconclusive [activator, partial curve, poor fit]"},
      {"smiles": "Cn1c(=O)c2c(nc(NCc3ccco3)n2C/C=C/c2ccccc2)n(C)c1=O", "Potency": "inconclusive [activator, single point]"},
      {"smiles": "COc1ccc(/C=N/Nc2nc3ccccc3o2)cc1O", "Potency": "inactive"},
      {"smiles": "CCCC[C@H](CN[C@@H](CNC)[C@H](C)CC)NCCC12CCC(CC1)C2", "Potency": "inconclusive [activator, partial curve, poor fit]"},
      {"smiles": "O=C1CC(C(=O)N2CCN(c3ccccc3)CC2)CN1Cc1ccccc1", "note": "(centres undefined)", "Potency": "inconclusive [activator, partial curve, poor fit]"},
      {"smiles": "C=CCn1c(SCC(=O)Nc2ccc(OC)cc2)nc2c([nH]c3ccccc32)c1=O", "Potency": "inactive"},
      {"smiles": "CCOC(=O)Cn1c(=O)cc(C)c2ccccc21", "Potency": "inconclusive [activator, single point]"},
      {"smiles": "CC(=O)NC(CC(=O)OC(C)C(=O)Nc1ccc(Cl)cn1)c1ccccc1", "note": "(centres undefined)", "Potency": "inactive"},
      {"smiles": "CCOc1ccc(-c2c(C(=O)N/N=C/c3ccc(C)cc3)nnn2-c2nonc2N)cc1", "Potency": "inactive"},
      {"smiles": "COc1ccc(C)cc1S(=O)(=O)n1cnc2ccccc21", "Potency": "inconclusive [activator, full curve]"},
      {"smiles": "Cc1nn(C)c(C)c1NC(=O)CSc1nnc(C)n1-c1ccccc1", "Potency": "inactive"},
      {"smiles": "CCCn1nnnc1NCc1ccc(OC)cc1OC", "Potency": "inactive"},
      {"smiles": "Cc1sc2nc(CN3CCN(c4ccc(O)cc4)CC3)[nH]c(=O)c2c1C", "Potency": "inactive"},
      {"smiles": "Cc1ccc(Nc2c(F)c(F)c(F)c(F)c2C(=O)O)c(C)c1", "Potency": "inconclusive [activator, partial curve]"},
      {"smiles": "CC(C)(C)NC(=O)C(c1ccncc1)N(C(=O)c1csnn1)c1ccccc1", "note": "(centres undefined)", "Potency": "inactive"},
      {"smiles": "COc1ccc(-c2noc(CSc3ccc(C)cc3)n2)cc1", "Potency": "inconclusive [activator, partial curve, poor fit]"},
      {"smiles": "O=S(=O)(c1ccc2ncn(O)c2c1)N1CCOCC1", "Potency": "inconclusive [activator, single point]"},
      {"smiles": "COc1cc(O)oc1C=Nc1ccc(Oc2ccccc2)cc1", "Potency": "inconclusive [activator, partial curve]"},
      {"smiles": "Cc1ccc(/C=C2/Sc3ccc(C(=O)NCc4ccccn4)cc3NC2=O)cc1", "Potency": "inconclusive [activator, single point]"},
      {"smiles": "O=C(c1ccccc1)c1ccc(OCCn2cnc3ccccc3c2=O)cc1", "Potency": "inconclusive [activator, single point]"},
      {"smiles": "CCc1ccc(Nc2ncc3c(n2)CC(c2ccco2)CC3=O)cc1", "note": "(centres undefined)", "Potency": "inconclusive [activator, partial curve]"},
      {"smiles": "COc1ccc([N+](=O)[O-])cc1-c1[nH]c(-c2ccc(C(=O)O)cc2)nc1-c1ccccc1", "Potency": "inconclusive [activator, partial curve, poor fit]"},
      {"smiles": "CN(C(=O)COC(=O)/C=C/c1ccc2ccccc2n1)c1c(N)n(Cc2ccccc2)c(=O)[nH]c1=O", "Potency": "inconclusive [activator, single point]"},
      {"smiles": "COc1ccc(C2N(c3ccc(Cl)cc3)N=C(C(C)=O)N(C)N2C(C)=O)cc1", "note": "(centres undefined)", "Potency": "inactive"}
    ]}
  ]
}
